# Source: patent EP4674868A1 (Jiangsu Hengrui Pharmaceuticals Co., Ltd., dated 2026)
# Like-named read-outs stand apart in the source and are kept apart here.
# Legend:
# [1] = target: T1, human FAP on the surface of CHO-K1 cells (CHO-K1-HuFAP) (human, UniProt Q12884 1-760); assay: FACS, CHO-K1-HuFAP cells
# T1 construct: whole, on cells; also called CHO cell line overexpressing human FAP; FAP on the surface of CHO-K1-HuFAP cells
# [2] = target: T2, human 4-1BB on the surface of HEK293 cells (HEK293-Hu4-1BB) (human, UniProt Q07011 24-255); assay: cell-based or functional assay
# T2 sequence (Q07011 24-255): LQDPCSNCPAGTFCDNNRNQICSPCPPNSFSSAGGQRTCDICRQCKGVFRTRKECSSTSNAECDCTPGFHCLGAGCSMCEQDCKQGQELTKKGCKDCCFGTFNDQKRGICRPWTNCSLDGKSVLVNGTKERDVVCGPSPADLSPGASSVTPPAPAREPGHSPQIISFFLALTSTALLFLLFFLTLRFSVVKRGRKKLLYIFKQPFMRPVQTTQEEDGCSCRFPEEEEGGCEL
# [3] = target: T3, human CD40 on the surface of HEK293 cells (HEK293-HuCD40) (human, UniProt P25942 21-277); assay: cell-based or functional assay
# T3 sequence (P25942 21-277): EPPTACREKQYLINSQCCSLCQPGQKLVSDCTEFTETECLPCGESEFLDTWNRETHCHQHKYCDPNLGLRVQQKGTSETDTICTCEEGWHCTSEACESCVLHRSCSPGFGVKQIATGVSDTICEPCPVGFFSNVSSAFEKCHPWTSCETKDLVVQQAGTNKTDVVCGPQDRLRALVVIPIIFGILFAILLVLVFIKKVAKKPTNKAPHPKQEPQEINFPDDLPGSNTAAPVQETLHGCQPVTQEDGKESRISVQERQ
# [4] = target: T2, human 4-1BB on the surface of HEK293 …; assay: FACS, HEK293-Hu4-1BB cells
# [5] = target: T3, human CD40 on the surface of HEK293 …; assay: FACS, HEK293-HuCD40 cells
# [6] = target: T1, human FAP on the surface of CHO-K1 …; assay: FACS, CHO-K1-HuFAP cells; remark: listed apart in the source
# [7] = target: T2, human 4-1BB on the surface of HEK293 …; assay: FACS, HEK293-Hu4-1BB cells; remark: listed apart in the source
# [8] = target: T2, human 4-1BB on the surface of HEK293 …; assay: cell-based or functional assay; remark: listed apart in the source
# [9] = target: T3, human CD40 on the surface of HEK293 …; assay: cell-based or functional assay; remark: listed apart in the source
# [10] = target: T3, human CD40 on the surface of HEK293 …; assay: FACS, HEK293-HuCD40 cells; remark: listed apart in the source
Binder,EC50 [6] [nM],Maximum fluorescence value [6],EC50 [7] [nM],Maximum fluorescence value [7],"4-1BB/NF-κB luciferase reporter, CD40-crosslinked, Fold change in Emax [8] [fold]","4-1BB/NF-κB luciferase reporter, FAP-crosslinked, EC50 [8] [nM]","4-1BB/NF-κB luciferase reporter, FAP-crosslinked, Fold change in Emax [8] [fold]","4-1BB/NF-κB luciferase reporter, uncrosslinked, Fold change in Emax [8] [fold]","CD40/NF-κB reporter (HEK-Blue CD40L), 4-1BB-crosslinked, EC50 [9] [nM]","CD40/NF-κB reporter (HEK-Blue CD40L), 4-1BB-crosslinked, Fold change in Emax [9] [fold]","CD40/NF-κB reporter (HEK-Blue CD40L), FAP-crosslinked, EC50 [9] [nM]","CD40/NF-κB reporter (HEK-Blue CD40L), FAP-crosslinked, Fold change in Emax [9] [fold]","CD40/NF-κB reporter (HEK-Blue CD40L), uncrosslinked, Fold change in Emax [9] [fold]",EC50 [10] [nM],Maximum fluorescence value [10],"4-1BB/NF-κB luciferase reporter, CD40-crosslinked, EC50 [8] [nM]",further results
B21326101 (anti-FAP/4-1BB/CD40 trispecific antibody) (other) heavy: QVQLQQSGVEVKKPGASVTVSCRASGYSFADHFIHWVRQAPGQGFQWMGWINPNRGVTHHAQDFQGRVAMTRDMSTDTVYMELTSLRSDDTAVYYCARDASLTARPYYFYGFDVWGQGTLVTVSS[human IgG1 constant region with changes not given here]GGGGSGGGGSQVQLVESGGGLVQPGGSLRLSCSASGFTFSSYAMSWVRQAPGKGLEWVSDINSGGESTFYEDSVKGRFTISRDNAKNTLYLQMNSLRAEDTAVYYCAKHPLTYTIATMNDYDYWGQGTLVTVSSGGGGSGGGGSEVQLVESGGGLVQPGGSLRLSCAASGFTFSRYGMKWVRQAPGKGLEWVSTINSHGDTTYYADSVKGRFTISRDNAKNSLYLQMNSLRAEDTAVYYCLRIDYSDYSSRGQGTLVTVSAA light: DIQMTQSPSSVSASVGDRVTITCRASQGISSWLAWYQQKPGKAPKLLIYAASSLQSGVPSRFSGSGSGTDFTLTISSLQPEDFATYYCQQANSFPPAFGQGTKVEIKRTVAAPSVFIFPPSDEQLKSGTASVVCLLNNFYPREAKVQWKVDNALQSGNSQESVTEQDSKDSTYSLSSTLTLSKADYEKHKVYACEVTHQGLSSPVTKSFNRGEC,,,,,,,,,,,,,,,,,"EC50 [1]: 0.72 nM; Maximum fluorescence value [1]: 65300; 4-1BB/NF-κB luciferase reporter, CD40-crosslinked, EC50 [2]: 0.035 nM; 4-1BB/NF-κB luciferase reporter, CD40-crosslinked, Fold change in Emax [2]: 4.53 fold; 4-1BB/NF-κB luciferase reporter, FAP-crosslinked, EC50 [2]: 0.071 nM; 4-1BB/NF-κB luciferase reporter, FAP-crosslinked, Fold change in Emax [2]: 8.14 fold; 4-1BB/NF-κB luciferase reporter, uncrosslinked, Fold change in Emax [2]: 1.05 fold; CD40/NF-κB reporter (HEK-Blue CD40L), 4-1BB-crosslinked, EC50 [3]: 0.688 nM; CD40/NF-κB reporter (HEK-Blue CD40L), 4-1BB-crosslinked, Fold change in Emax [3]: 6.01 fold; CD40/NF-κB reporter (HEK-Blue CD40L), FAP-crosslinked, EC50 [3]: 0.095 nM; CD40/NF-κB reporter (HEK-Blue CD40L), FAP-crosslinked, Fold change in Emax [3]: 6.79 fold; CD40/NF-κB reporter (HEK-Blue CD40L), uncrosslinked, Fold change in Emax [3]: 5.06 fold; EC50 [4]: 0.19 nM; Maximum fluorescence value [4]: 10800; EC50 [5]: 2.55 nM; Maximum fluorescence value [5]: 62300"
B977707 (anti-FAP/4-1BB/CD40 trispecific antibody) (other) heavy: QVQLQQSGVEVKKPGASVTVSCRASGYSFADHFIHWVRQAPGQGFQWMGWINPNRGVTHHAQDFQGRVAMTRDMSTDTVYMELTSLRSDDTAVYYCARDASLTARPYYFYGFDVWGQGTLVTVSS[human IgG1 constant region with changes not given here]GGGGSGGGGSQVQLVESGGGLVQPGGSLRLSCSASGFTFSSYAMSWVRQAPGKGLEWVSDINSGGESTFYEDSVKGRFTISRDNAKNTLYLQMNSLRAEDTAVYYCAKHPLTYTIATMNDYDYWGQGTLVTVSSGGGGSGGGGSQVQLVESGGGLVQPGGSLRLSCSASGFTFSSYAMSWVRQAPGKGLEWVSDINSGGESTFYEDSVKGRFTISRDNAKNTLYLQMNSLRAEDTAVYYCAKHPLTYTIATMNDYDYWGQGTLVTVSS light: DIQMTQSPSSVSASVGDRVTITCRASQGISSWLAWYQQKPGKAPKLLIYAASSLQSGVPSRFSGSGSGTDFTLTISSLQPEDFATYYCQQANSFPPAFGQGTKVEIKRTVAAPSVFIFPPSDEQLKSGTASVVCLLNNFYPREAKVQWKVDNALQSGNSQESVTEQDSKDSTYSLSSTLTLSKADYEKHKVYACEVTHQGLSSPVTKSFNRGECGGGGSGGGGSEVQLVESGGGLVQPGGSLRLSCAASGFTFSRYGMKWVRQAPGKGLEWVSTINSHGDTTYYADSVKGRFTISRDNAKNSLYLQMNSLRAEDTAVYYCLRIDYSDYSSRGQGTLVTVSS,2.4,113000,0.093,6200,7.27,0.033,9.74,5.28,0.049,9.06,0.019,9.32,7.78,6.23,88100,,
"B785502 (anti-FAP/4-1BB/CD40 trispecific antibody) (other, Trispecific: Ab10 IgG1 (L234A, L235A); heavy chain C-terminus-(G4S)2-A297V3-(G4S)2-C5V2-YTI) heavy: QVQLQQSGVEVKKPGASVTVSCRASGYSFADHFIHWVRQAPGQGFQWMGWINPNRGVTHHAQDFQGRVAMTRDMSTDTVYMELTSLRSDDTAVYYCARDASLTARPYYFYGFDVWGQGTLVTVSS[human IgG1 constant region with changes not given here]GGGGSGGGGSEVQLVESGGGLVQPGGSLRLSCAASGFTFSRYGMKWVRQAPGKGLEWVSTINSHGDTTYYADSVKGRFTISRDNAKNSLYLQMNSLRAEDTAVYYCLRIDYSDYSSRGQGTLVTVSSGGGGSGGGGSQVQLVESGGGLVQPGGSLRLSCSASGFTFSSYAMSWVRQAPGKGLEWVSDINSGGESTFYEDSVKGRFTISRDNAKNTLYLQMNSLRAEDTAVYYCAKHPLTFTIATMNDYDYWGQGTLVTVSS light: DIQMTQSPSSVSASVGDRVTITCRASQGISSWLAWYQQKPGKAPKLLIYAASSLQSGVPSRFSGSGSGTDFTLTISSLQPEDFATYYCQQANSFPPAFGQGTKVEIKRTVAAPSVFIFPPSDEQLKSGTASVVCLLNNFYPREAKVQWKVDNALQSGNSQESVTEQDSKDSTYSLSSTLTLSKADYEKHKVYACEVTHQGLSSPVTKSFNRGEC",3.38,147000,,,6.51,0.042,10.9,5.97,0.05,10.3,0.016,9.72,6.97,3.39,68900,1.06,
"B785503 (anti-FAP/4-1BB/CD40 trispecific antibody) (other, Trispecific: Ab10 IgG1 (L234A, L235A); A297V3 on heavy chain C-termini, C5V2-YTI on light chain C-termini) heavy: QVQLQQSGVEVKKPGASVTVSCRASGYSFADHFIHWVRQAPGQGFQWMGWINPNRGVTHHAQDFQGRVAMTRDMSTDTVYMELTSLRSDDTAVYYCARDASLTARPYYFYGFDVWGQGTLVTVSS[human IgG1 constant region with changes not given here]GGGGSGGGGSEVQLVESGGGLVQPGGSLRLSCAASGFTFSRYGMKWVRQAPGKGLEWVSTINSHGDTTYYADSVKGRFTISRDNAKNSLYLQMNSLRAEDTAVYYCLRIDYSDYSSRGQGTLVTVSS light: DIQMTQSPSSVSASVGDRVTITCRASQGISSWLAWYQQKPGKAPKLLIYAASSLQSGVPSRFSGSGSGTDFTLTISSLQPEDFATYYCQQANSFPPAFGQGTKVEIKRTVAAPSVFIFPPSDEQLKSGTASVVCLLNNFYPREAKVQWKVDNALQSGNSQESVTEQDSKDSTYSLSSTLTLSKADYEKHKVYACEVTHQGLSSPVTKSFNRGECGGGGSGGGGSQVQLVESGGGLVQPGGSLRLSCSASGFTFSSYAMSWVRQAPGKGLEWVSDINSGGESTFYEDSVKGRFTISRDNAKNTLYLQMNSLRAEDTAVYYCAKHPLTFTIATMNDYDYWGQGTLVTVSS",1.78,108000,0.439,6730,9.8,0.02,13.1,8.42,0.015,9.64,0.09,9.47,6.67,4.22,66700,0.03,
"B785511 (anti-4-1BB/CD40 control molecule, C5V2-YTI-Fc-A297V3) (bispecific antibody, IgG1, C5V2-YTI - IgG1 hinge - Fc (L234A, L235A) - (G4S)2 - A297V3; no FAP arm) QVQLVESGGGLVQPGGSLRLSCSASGFTFSSYAMSWVRQAPGKGLEWVSDINSGGESTFYEDSVKGRFTISRDNAKNTLYLQMNSLRAEDTAVYYCAKHPLTFTIATMNDYDYWGQGTLVTVSS[human IgG1 Fc with changes not given here]GGGGSGGGGSEVQLVESGGGLVQPGGSLRLSCAASGFTFSRYGMKWVRQAPGKGLEWVSTINSHGDTTYYADSVKGRFTISRDNAKNSLYLQMNSLRAEDTAVYYCLRIDYSDYSSRGQGTLVTVSS",,74,0.251,6280,8.48,,6.93,7.2,0.025,10.8,,7.77,7.26,4.21,63200,0.026,
